Measured values taken from the supplement of paper PMC8728848.
The list shows a part of the results.

How the values were obtained:
Experiment in all cases: glycan array binding signal (z-score within array); higher = stronger binding
Details in all cases: glycan notation: IUPAC condensed, linker removed
[1] = molecular target: Neu5Ac(a2-3)Gal(b1-4)GlcNAc(b1-6)GalNAc
Outline: (§1)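 The binding signal is a Z-score computed within each array and averaged over linkers. Arrays of the same protein sequence at different concentrations or buffers were also averaged together. Data originate from 3228 arrays in the Consortium for Functional Glycomics database, kept only where the protein sequence was available.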

[2] = molecular target: Neu5Ac(a2-3)Gal(b1-4)GlcNAc(b1-6)[Gal(b1-3)]GalNAc
Outline: as §1

[3] = molecular target: Neu5Ac(a2-3)Gal(b1-4)GlcNAc(b1-6)[Neu5Ac(a2-3)Gal(b1-3)]GalNAc
Outline: as §1

[4] = molecular target: Neu5Ac(a2-3)Gal(b1-4)GlcNAc6S
Outline: as §1

[5] = molecular target: Neu5Ac(a2-3)Gal(b1-4)[Fuc(a1-3)]GlcNAc
Outline: as §1

[6] = molecular target: Neu5Ac(a2-3)Gal(b1-4)[Fuc(a1-3)]GlcNAc(b1-2)Man
Outline: as §1

[7] = molecular target: Neu5Ac(a2-3)Gal(b1-4)[Fuc(a1-3)]GlcNAc(b1-3)Gal
Outline: as §1

[8] = molecular target: Neu5Ac(a2-3)Gal(b1-4)[Fuc(a1-3)]GlcNAc(b1-3)Gal(b1-4)GlcNAc
Outline: as §1

[9] = molecular target: Neu5Ac(a2-3)Gal(b1-4)[Fuc(a1-3)]GlcNAc(b1-3)Gal(b1-4)[Fuc(a1-3)]GlcNAc(b1-3)Gal(b1-4)[Fuc(a1-3)]GlcNAc
Outline: as §1

[10] = molecular target: Neu5Ac(a2-3)Gal(b1-4)[Fuc(a1-3)]GlcNAc(b1-3)GalNAc
Outline: as §1

[11] = molecular target: Neu5Ac(a2-3)Gal(b1-4)[Fuc(a1-3)]GlcNAc(b1-6)[Gal(b1-3)]GalNAc
Outline: as §1

[12] = molecular target: Neu5Ac(a2-3)Gal(b1-4)[Fuc(a1-3)]GlcNAc(b1-6)[Neu5Ac(a2-3)Gal(b1-3)]GalNAc
Outline: as §1

[13] = molecular target: Neu5Ac(a2-3)Gal(b1-4)[Fuc(a1-3)]GlcNAc6S
Outline: as §1

[14] = molecular target: Neu5Ac(a2-3)Gal6S(b1-4)GlcNAc
Outline: as §1

[15] = molecular target: Neu5Ac(a2-3)Gal6S(b1-4)[Fuc(a1-3)]GlcNAc
Outline: as §1

Neu5Ac(a2-3)GalNAc = molecular target: Neu5Ac(a2-3)GalNAc
Outline: as §1

[16] = molecular target: Neu5Ac(a2-3)GalNAc(b1-4)GlcNAc
Outline: as §1

[17] = molecular target: Neu5Ac(a2-3)[GalNAc(b1-4)]Gal(b1-4)Glc
Outline: as §1

[18] = molecular target: Neu5Ac(a2-3)[GalNAc(b1-4)]Gal(b1-4)GlcNAc
Outline: as §1

[19] = molecular target: Neu5Ac(a2-3)[GalNAc(b1-4)]Gal(b1-4)GlcNAc(b1-3)GalNAc
Outline: as §1

[20] = molecular target: Neu5Ac(a2-3)[Neu5Ac(a2-6)]GalNAc
Outline: as §1

Neu5Ac(a2-6)Gal = molecular target: Neu5Ac(a2-6)Gal
Outline: as §1

[21] = molecular target: Neu5Ac(a2-6)Gal(b1-3)GlcNAc(b1-3)[Gal(b1-4)GlcNAc(b1-6)]Gal(b1-4)Glc
Outline: as §1

Neu5Ac(a2-6)Gal(b1-4)Glc = molecular target: Neu5Ac(a2-6)Gal(b1-4)Glc
Outline: as §1

[22] = molecular target: Neu5Ac(a2-6)Gal(b1-4)GlcNAc
Outline: as §1

[23] = molecular target: Neu5Ac(a2-6)Gal(b1-4)GlcNAc(b1-2)Man
Outline: as §1

[24] = molecular target: Neu5Ac(a2-6)Gal(b1-4)GlcNAc(b1-2)Man(a1-3)Man(b1-4)GlcNAc(b1-4)GlcNAc
Outline: as §1

[25] = molecular target: Neu5Ac(a2-6)Gal(b1-4)GlcNAc(b1-2)Man(a1-3)[Gal(b1-4)GlcNAc(b1-2)Man(a1-6)]Man(b1-4)GlcNAc(b1-4)GlcNAc
Outline: as §1

[26] = molecular target: Neu5Ac(a2-6)Gal(b1-4)GlcNAc(b1-2)Man(a1-3)[GlcNAc(b1-2)Man(a1-6)]Man(b1-4)GlcNAc(b1-4)GlcNAc
Outline: as §1

[27] = molecular target: Neu5Ac(a2-6)Gal(b1-4)GlcNAc(b1-2)Man(a1-3)[GlcNAc(b1-4)][Neu5Ac(a2-6)Gal(b1-4)GlcNAc(b1-2)Man(a1-6)]Man(b1-4)GlcNAc(b1-4)GlcNAc
Outline: as §1

[28] = molecular target: Neu5Ac(a2-6)Gal(b1-4)GlcNAc(b1-2)Man(a1-3)[Man(a1-6)]Man(b1-4)GlcNAc(b1-4)GlcNAc
Outline: as §1

B1: Cohesin-marm-DC-ASGPR (protein)
chain: LDITSHHHHHHDDLDAVRIKVDTVNAKPGDTVRIPVRFSGIPSKGIANCDFVYSYDPNVLEIIEIEPGDIIVDPNPDKSFDTAVYPDRKIIVFLFAEDSGTGAYAITKDGVFATIVAKVKEGAPNGLSVIKFVEVGGFANNDLVEQKTQFFDGGVNVGDTTEPATPTTPVTTPTTTDDLDAASSKFQRDLVTLRTDFSNFTSNTLAEIQALTSQGSSLQETIASLKAEVEGHKQELQAGASELQEHNKQKAHLGRCPHTCVCPSSFVCVPVHSEILLRVQQLVQDLNKLSCQVAILKNNATTERTCCPINWVEHQGSCYWFSRSGKTWPEAERYCQLENTHLVVINSREEQNFVQAHLGSAYTWMGLSDPEGVWKWVDGTDYSSGFQNWKPGQPDDWQGHGLGGGEDCAHFHPDGRWNDDVCQRSYHWVCEAGLTQASQDSHAS
glycan array binding signal (z-score) [1]: 4.81
glycan array binding signal (z-score) [2]: -0.297
glycan array binding signal (z-score) [3]: -0.303
glycan array binding signal (z-score) [4]: -0.294
glycan array binding signal (z-score) [5]: -0.304
glycan array binding signal (z-score) [6]: -0.233
glycan array binding signal (z-score) [7]: -0.311
glycan array binding signal (z-score) [8]: -0.244
glycan array binding signal (z-score) [9]: -0.29
glycan array binding signal (z-score) [10]: -0.202
glycan array binding signal (z-score) [11]: -0.307
glycan array binding signal (z-score) [12]: -0.284
glycan array binding signal (z-score) [13]: -0.297
glycan array binding signal (z-score) [14]: -0.307
glycan array binding signal (z-score) [15]: -0.303
glycan array binding signal (z-score) (Neu5Ac(a2-3)GalNAc): -0.309
glycan array binding signal (z-score) [16]: -0.308
glycan array binding signal (z-score) [17]: 2.04
glycan array binding signal (z-score) [18]: -0.039
glycan array binding signal (z-score) [19]: -0.229
glycan array binding signal (z-score) [20]: -0.249
glycan array binding signal (z-score) (Neu5Ac(a2-6)Gal): -0.306
glycan array binding signal (z-score) [21]: -0.293
glycan array binding signal (z-score) (Neu5Ac(a2-6)Gal(b1-4)Glc): -0.303
glycan array binding signal (z-score) [22]: -0.287
glycan array binding signal (z-score) [23]: -0.288
glycan array binding signal (z-score) [24]: -0.31
glycan array binding signal (z-score) [25]: -0.175
glycan array binding signal (z-score) [26]: -0.312
glycan array binding signal (z-score) [27]: -0.308
glycan array binding signal (z-score) [28]: -0.309
